Test results from US20190375786A1, “STABLE PEPTIDES AND METHODS OF USE THEREOF” (Fred Hutchinson Cancer Research Center, priority 2016, published 2019).
Part of at least one peptide drawing is inferred or uncertain, most often the ends. Positions of bridges follow the written chain, without caps; N, C: chain ends. Residues, ends and D or L forms follow the SMILES beside them.

Experiments:
[1] = Resistance to elevated temperature, HPLC; format: physicochemical; conditions: HPLC peak vs untreated peptide; for Resistance to Temperature (75° C.): 75° C. for one hour; for Resistance to Temperature (100° C.): 100° C. for one hour
Description: (§1) Peptides were first suspended in 500 μl of ddH2O to a stock concentration of 2 mg/ml. Reactions were prepared by adding 12.5 μg of peptide from the stock solution to a 10 mM solution of DTT in PBS and allowed to incubate at room temperature for 30 minutes. Other reactions were prepared with 12.5 μg peptide and 500 U/ml trypsin in 25 mM Tris/75 mM NaCl buffer (pH 7.0) and incubated for 30 minutes at 37.5° C. These reactions were then quenched with 5 μg of soybean trypsin inhibitor (I) and, in some cases, 10 mM dithiothreitol (DTT). Reversed phase HPLC (RP-HPLC) was run on samples using an Agilent 1260 HPLC equipped with a C-18 Poroshell 120B column. Sample were analyzed by a gradient method with a mobile phase of Solvent A (water with 0.1% TFA) and Solvent B (acetonitrile with 0.1% TFA). Solvent B was ramped up from 5%-45% of the mobile phase over a period of 10 minutes. For testing pepsin digestion resistance, reactions were prepared with 12.5 μg peptide with or without 500 U/ml pepsin in simulated gastric fluid (SGF; pH 1.05; […] sodium chloride in 0.7% (v/v) hydrochloric acid) and were incubated for 30 minutes at 37.5° C. For testing temperature resistance, peptides were incubated at 70° C., 75° C., or 100° C. for one hour in 0.5 mM PBS, pelleted, and then the supernatant was analyzed by HPLC.
This example illustrates peptide stability at high temperatures. Peptides were first suspended in 500 μl of ddH2O to a stock concentration of 2 mg/ml. Reactions were prepared by adding 6.25 μl of peptide from the stock solution with 95 μl ddH2O and incubated at room temperature, 70° C., or 100° C. for one hour in a Thermocycler. RP-HPLC was then run on samples using an Agilent 1260 HPLC equipped with a C-18 Poroshell 120B column. Sample were analyzed by a gradient method with a mobile phase of Solvent A (water with 0.1% TFA) and Solvent B (acetonitrile with 0.1% TFA). Solvent B was ramped up from 5%-45% of the mobile phase over a period of 10 minutes.

[2] = Resistance to reduction by DTT, RP-HPLC; format: physicochemical; conditions: 10 mM DTT in PBS, room temperature, 30 minutes; HPLC peak vs untreated peptide
Description: Peptides were first suspended in 500 ul of ddH2O to a stock concentration of 2 mg/ml. Reactions were prepared by adding 12.5 ug of peptide from the stock solution to a 10 mM solution of DTT in PBS and allowed to incubate at room temperature for 30 minutes. Other reactions were prepared with 12.5 μg peptide with or without 500 U/ml pepsin in simulated gastric fluid (SGF; pH 1.05; […] sodium chloride in 0.7% (v/v) hydrochloric acid) and were incubated for 30 minutes at 37.5° C. Some reactions were quenched with a final concentration of 100 mM Tris base and 10 mM dithiothreitol (DTT). Some reactions were performed in all of the above components, including simulated gastric fluid, pepsin, Tris, and DTT (referred to as SPTD). Reversed phase HPLC (RP-HPLC) was run on samples using an Agilent 1260 HPLC equipped with a C-18 Poroshell 120B column. Sample were analyzed by a gradient method with a mobile phase of Solvent A (water with 0.1% TFA) and Solvent B (acetonitrile with 0.1% TFA). Solvent B was ramped up from 5%-45% of the mobile phase over a period of 10 minutes. Peptides were detected at an absorbance of 214 nm and 280 nm.
as §1
This example illustrates peptide stability in biological conditions including in the presence of reducing agents, proteases, oxidative conditions, acidic conditions, and simulated gastric fluids. […] Various peptides were suspended in 500 μl of ddH2O at a stock concentration of 2 mg/ml. This was then diluted in accord with the reaction conditions to prevent adverse buffering effects. Reactions were prepared with 12.5 μg peptide dissolved in solution and, in some samples, additionally suspended in a 10 mM solution of DTT, simulated gastric fluid (pH 1.05; […] sodium chloride in 0.7% (v/v) hydrochloric acid), 500 U pepsin (5000 U/ml pepsin), 50 U trypsin (500 U/ml trypsin) with 1 mg/ml inhibitor in PBS, or a combination of any of these conditions. All protease reactions were incubated for 30 min at room temperature and then quenched. Pepsin reactions were quenched by adding Tris base to a final concentration of 0.075 M. Trypsin reactions were quenched by adding excess soybean trypsin inhibitor. RP-HPLC was then run on samples using an Agilent 1260 HPLC equipped with a C-18 Poroshell 120B column. Sample were analyzed by a gradient method with a mobile phase of Solvent A (water with 0.1% TFA) and Solvent B (acetonitrile with 0.1% TFA). Solvent B was ramped up from 5%-45% of the mobile phase over a period of 10 minutes.
FIG. 18 illustrates high performance liquid chromatograph (HPLC) traces of peptides in non-reducing (NR) conditions (solid trace) or in 10 mM DTT reducing (R) conditions (dashed trace). […]

| Structure (SMILES) | Resistance to Temperature (75° C.) [1] | Resistance to Temperature (100° C.) [1] | Resistance to DTT Reduction (10 mM) [2] |
| --- | --- | --- | --- |
| CC[C@H](C)[C@@H]1NC(=O)[C@@H]2CSSC[C@H](NC(=O)[C@@H](NC(=O)[C@H](C)NC(=O)[C@H](CO)NC(=O)CN)C(C)C)C(=O)N[C@@H](CC(N)=O)C(=O)N[C@@H](CC(C)C)C(=O)N[C@@H](CCCCN)C(=O)N[C@@H](CCCNC(=N)N)C(=O)N[C@H]3CSSC[C@H](NC(=O)[C@H](CCCCN)NC(=O)[C@H](CC(=O)O)NC(=O)CNC1=O)C(=O)N[C@@H](CCC(=O)O)C(=O)N[C@H](C(=O)N[C@H](C(=O)N[C@@H](CCCCN)C(=O)N[C@@H](Cc1c[nH]cn1)C(=O)NCC(=O)O)C(C)C)CSSC[C@H](NC(=O)[C@H](CO)NC(=O)[C@H](CC(C)C)NC(=O)[C@H](CCC(N)=O)NC3=O)C(=O)N[C@@H](CCCNC(=N)N)C(=O)N[C@@H](CO)C(=O)N[C@@H](CC(C)C)C(=O)NCC(=O)N[C@@H](CC(C)C)C(=O)N[C@@H](CC(C)C)C(=O)NCC(=O)N[C@@H](CCCCN)C(=O)N2 [compound 8] (H-GSAVCNLKRCQLSCRSLGLLGKCIGDKCECVKHG-OH; disulfide 5-23, 10-28, 14-30) | High (A peptide classified as high indicates that the majority (at least 75%) of the HPLC peak of the treated peptide is still present as compared to the HPLC peak of the untreated peptide) | High (A peptide classified as high indicates that the majority (at least 75%) of the HPLC peak of the treated peptide is still present as compared to the HPLC peak of the untreated peptide) | Low (A peptide classified as low indicates that the majority (over 75%) of the HPLC peak of the treated peptide disappeared as compared to the HPLC peak of the untreated peptide) |
| CC[C@H](C)[C@H](NC(=O)[C@H](CCCNC(=N)N)NC(=O)[C@@H](NC(=O)[C@H](CO)NC(=O)CN)C(C)C)C(=O)N1CCC[C@H]1C(=O)N[C@H](C(=O)N[C@@H](CO)C(=O)N[C@H]1CSSC[C@@H]2NC(=O)[C@H](CCCCN)NC(=O)CNC(=O)[C@H](Cc3ccccc3)NC(=O)[C@H](CCCNC(=N)N)NC(=O)[C@H](CCSC)NC(=O)CNC(=O)[C@H](C)NC(=O)[C@H](CC(=O)O)NC(=O)[C@H](CCCCN)NC(=O)[C@@H]3CSSC[C@@H](C(=O)N[C@H](C(=O)N4CCC[C@H]4C(=O)N[C@@H](CCCCN)C(=O)O)[C@@H](C)O)NC(=O)[C@H](CC(=O)O)NC(=O)[C@H](CSSC[C@H](NC(=O)[C@H](CCC(N)=O)NC(=O)CNC(=O)[C@H](CO)NC(=O)[C@H](Cc4c[nH]cn4)NC(=O)[C@H](CCCCN)NC1=O)C(=O)N[C@@H](CC(C)C)C(=O)N[C@@H](CCCCN)C(=O)N1CCC[C@H]1C(=O)N3)NC(=O)[C@H](CCCCN)NC(=O)CNC(=O)[C@H](CC(N)=O)NC(=O)[C@H](CCSC)NC2=O)C(C)C [compound 24] (H-GSVRIPVSCKHSGQCLKPCKDAGMRFGKCMNGKCDCTPK-OH; disulfide 9-29, 15-34, 19-36) | High (A peptide classified as high indicates that the majority (at least 75%) of the HPLC peak of the treated peptide is still present as compared to the HPLC peak of the untreated peptide) | High (A peptide classified as high indicates that the majority (at least 75%) of the HPLC peak of the treated peptide is still present as compared to the HPLC peak of the untreated peptide) | High (A peptide classified as high indicates that the majority (at least 75%) of the HPLC peak of the treated peptide is still present as compared to the HPLC peak of the untreated peptide) |
